Measured values from the supplement of paper PMC12217912.
The other results are listed elsewhere or left out. The full chains were built here from the parent and the listed change. Inactive controls read about 0.05.

B1: TEV protease; numbered along this chain (parent)
chain: MGESLFKGPRDYNPISSSICHLTNESDGHTTSLYGIGFGPFIITNKHLFRRNNGTLVVQSLHGVFKVKDTTTLQQHLVDGRDMIIIRMPKDFPPFPQKLKFREPQREERICLVTTNFQTKSMSSMVSDTSCTFPSGDGIFWKHWIQTKDGQCGSPLVSTRDGFIVGIHSASNFTNTNNYFTSVPKNFMELLTNQEAQQWVSGWRLNADSVLWGGHKVFMVKPEEPFQPVKEATQL

Variants of: B1
Assay: raw area under fraction-flipped curve 0-4 h after induction (AUC4h, not background-subtracted), DNA-recorder readout of cleavage of the substrate (dimensionless); higher = more cleavage of the substrate by the protease variant
Conditions: temperature: 34 °C; time window: 0-4 h after rhamnose induction
Description: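 In vivo DNA recorder in E. coli TOP10(DE3) ΔrhaA at 34 °C. Each TEVp single-site mutant (parent TEVp 0) is paired with a single-site variant of the 7-mer TEVs (canonical ENLYFQ|S). The substrate sits between flexible linkers in a Bxb1-sfGFP-TEVs-SsrA fusion, so cleavage stabilises Bxb1 and speeds flipping of a recombination array, read by NGS. The value is the raw area under the fraction-flipped curve over 0-4 h after rhamnose induction (AUC4h), with ≥20 reads per time point. It is not background-subtracted; inactive controls average about 0.047.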
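Note: Bxb1 expression induced with 0.2% (w/v) L-rhamnose at OD600 near 0.5, cultures sampled hourly, flipped fraction per protease–substrate barcode pair counted by paired-end Illumina sequencing.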

| Variant | area with substrate ENLAFQS | area with substrate ENLDFQS | area with substrate ENLEFQS | area with substrate ENLFFQS | area with substrate ENLHFQS | area with substrate ENLIFQS | area with substrate ENLKFQS | area with substrate ENLLFQS | area with substrate ENLNFQS | area with substrate ENLPFQS | area with substrate ENLQFQS | area with substrate ENLSFQS | area with substrate ENLTFQS | area with substrate ENLWFQS | area with substrate ENLMFQS | area with substrate ENLRFQS | area with substrate ENLVFQS | area with substrate ENLCFQS | area with substrate ENLGFQS |
| --- | --- | --- | --- | --- | --- | --- | --- | --- | --- | --- | --- | --- | --- | --- | --- | --- | --- | --- | --- |
| MGESLFKGPRDYNPISSSICHLTNESDGHTTSLYGIGFGPFIITNKHLFRRNNGTLVVQSLHGVFKVKDTTTLQQHLVDGRDMIIIRMPKDFPPFPQKLKFREPQREERICLVTTNFQTKSMSSMVSDTSCTFPSGDGIFWKHWIQTKDGQCGSPLVSTRDGFIVGIHSASNFTNTNNYFTSVPKNFMELLTNQEAQQWVSGWSLNADSVLWGGHKVFMVKPEEPFQPVKEATQL [R204S] | 0.061 | 0.0642 | 0.0609 | 0.0299 | 0.0745 | 0.0867 | 0.0776 | 0.0808 | 0.07 | 0.0586 | 0.107 | 0.0704 | 0.0163 | 0.0476 |  |  |  |  |  |
| MGESLFKGPRDYNPISSSICHLTNESDGHTTSLYGIGFGPFIITNKHLFRRNNGTLVVQSLHGVFKVKDTTTLQQHLVDGRDMIIIRMPKDFPPFPQKLKFREPQREERICLVTTNFQTKSMSSMVSDTSCTFPSGDGIFWKHWIQTKDGQCGSPLVSTRDGFIVGIHSASNFTNTNNYFTSVPKNFMELLTNQESQQWVSGWRLNADSVLWGGHKVFMVKPEEPFQPVKEATQL [A196S] | 0.0594 | 0.0617 | 0.0635 | 0.0873 | 0.0806 | 0.0835 | 0.0536 |  | 0.0643 |  | 0.0637 | 0.0507 | 0.0739 | 0.0681 | 0.0739 | 0.104 | 0.0773 |  |  |
| MGESLFKGPRDYNPISSSICHLTNESDGHTTSLYGIGFGPFIITNKHLFRRNNGTLVVQSLHGVFKVKDTTTLQQHLVDGRDMIIIRMPKDFPPFPQKLKFREPQREERICLVTTNFQTKSMSSMVSDTSCTFPSGDGIFWKHWIQTKDGQCGSPLVSTRDGFIVGIHSASNFTNTNNYFTSVPKNFMELLTNQEAQQWVSGWRLNWDSVLWGGHKVFMVKPEEPFQPVKEATQL [A207W] | 0.068 | 0.0589 | 0.0471 | 0.0679 | 0.067 | 0.0405 |  | 0.0722 | 0.0586 | 0.0409 | 0.059 | 0.0437 |  |  |  | 0.064 |  | 0.0633 |  |
| MGESLFKGPRDYNPISSSICHLTNESDGHTTSLYGIGFGPFIITNKHLFRRNNGTLVVQSLHGVFKVKDTTTLQQHLVDGRDMIIIRMPKDFPPFPQKLKFREPQREERICLVTTNFQTKSMSSMVSDTSCTFPSGDGIFWKHWIQTKDGQCGSPLVSTRDGFIVGIHSASNFTNTNNYFTSVPKNFMELLTNQEAQQWVSGWRLNGDSVLWGGHKVFMVKPEEPFQPVKEATQL [A207G] | 0.0807 | 0.067 |  | 0.107 | 0.0659 |  |  |  |  | 0.0339 | 0.0762 | 0.0655 | 0.0681 | 0.0558 |  |  |  | 0.0763 |  |
| MGESLFKGPRDYNPISSSICHLTNESDGHTTSLYGIGFGPFIITNKHLFRRNNGTLVVQSLHGVFKVKDTTTLQQHLVDGRDMIIIRMPKDFPPFPQKLKFREPQREERICLVTTNFQTKSMSSMVSDTSCTFPSGDGIFWKHWIQTKDGQCGSPLVSTRDGFIVGIHSASNFTNTNNYFTSVPKNFMELLTNQEAQQWVSGMRLNADSVLWGGHKVFMVKPEEPFQPVKEATQL [W203M] | 0.0546 | 0.0763 |  | 0.14 |  |  | 0.043 | 0.0531 | 0.0618 | 0.0672 | 0.0514 | 0.0524 |  | 0.0527 | 0.0612 | 0.0813 |  |  | 0.0549 |
| MGESLFKGPRDYNPISSSICHLTNESDGHTTSLYGIGFGPFIITNKHLFRRNNGTLVVQSLHGVFKVKDTTTLQQHLVDGRDMIIIRMPKDFPPFPQKLKFREPQREERICLVTTNFQTKSMSSMVSDTSCTFPSGDGIFWKHWIQTKDGQCGSPLVSTRDGFIVGIHSASNFTNTNNYFTSVPKNFMELLTNQEAQQWVSTWRLNADSVLWGGHKVFMVKPEEPFQPVKEATQL [G202T] | 0.0511 | 0.0536 |  | 0.0559 |  |  | 0.0662 |  | 0.0625 |  |  | 0.0678 | 0.0487 |  |  | 0.0425 |  |  |  |
| MGESLFKGPRDYNPISSSICHLTNESDGHTTSLYGIGFGPFIITNKHLFRRNNGTLVVQSLHGVFKVKDTTTLQQHLVDGRDMIIIRMPKDFPPFPQKLKFREPQREERICLVTTNFQTKSMSSMVSDTSCTFPSGDGIFWKHWIQTKDGQCGSPLVSTRDGFIVGIHSASNFTNTNNYFTSVPKNFMELLTLQEAQQWVSGWRLNADSVLWGGHKVFMVKPEEPFQPVKEATQL [N193L] | 0.0631 | 0.0766 |  | 0.0671 | 0.0631 | 0.0844 | 0.113 |  |  | 0.0614 |  | 0.058 |  |  |  |  |  | 0.0628 |  |
| MGESLFKGPRDYNPISSSICHLTNESDGHTTSLYGIGFGPFIITNKHLFRRNNGTLVVQSLHGVFKVKDTTTLQQHLVDGRDMIIIRMPKDFPPFPQKLKFREPQREERICLVTTNFQTKSMSSMVSDTSCTFPSGDGIFWKHWIQTKDGQCGSPLVSTRDGFIVGIHSASNFTNTNNYFTSVPKNFMELLTNQEAQQWVSGWRKNADSVLWGGHKVFMVKPEEPFQPVKEATQL [L205K] | 0.038 |  | 0.0575 |  |  |  |  |  | 0.0537 |  | 0.0589 |  |  | 0.0688 |  | 0.0654 | 0.0606 |  |  |
| MGESLFKGPRDYNPISSSICHLTNESDGHTTSLYGIGFGPFIITNKHLFRRNNGTLVVQSLHGVFKVKDTTTLQQHLVDGRDMIIIRMPKDFPPFPQKLKFREPQREERICLVTTNFQTKSMSSMVSDTSCTFPSGDGIFWKHWIQTKDGQCGSPLVSTRDGFIVGIHSASNFTNTNNYFTSVPKNFMELLTNQEAQQWVSGWRINADSVLWGGHKVFMVKPEEPFQPVKEATQL [L205I] | 0.0404 |  | 0.0636 |  | 0.062 |  |  |  | 0.0452 |  |  |  |  |  |  |  |  |  | 0.0654 |
| MGESLFKGPRDYNPISSSICHLTNESDGHTTSLYGIGFGPFIITNKHLFRRNNGTLVVQSLHGVFKVKDTTTLQQHLVDGRDMIIIRMPKDFPPFPQKLKFREPQREERICLVTTNFQTKSMSSMVSDTSCTFPSGDGIFWKHWIQTKDGQCGSPLVSTRDGFIVGIHSASNFTNTNNYFTSVPKNFMELLTNQEAQQWVSGWRLNADSVYWGGHKVFMVKPEEPFQPVKEATQL [L211Y] | 0.0684 | 0.0624 |  | 0.0827 | 0.0797 |  | 0.0769 |  | 0.148 | 0.061 | 0.0727 | 0.0763 |  | 0.0896 | 0.068 |  |  | 0.0758 |  |
